Positions of bridges follow the written chain, without caps; N, C: chain ends.
Columns and labels:
[1] = stability in human plasma (Table 3); type: in vitro ADME; details: 37° C
Experimental: This example illustrates the stability of SDF-1 chemokine analogs (as represented by Compound A (SEQ ID NO:809) and Compound B (SEQ ID NO:810)) in human plasma.
Fresh blood was collected into heparinized tubes and spun down at room temperature for 15 minutes at 1500 g, and the plasma was removed and placed in another tube. The plasma was then cooled to 4° C. by incubation on ice, and centrifuged for 15 minutes at 1500 g at 4° C. The plasma was recovered and used immediately and the leftover was frozen at −20° C.
Fractions of 0.5 ml of human plasma were aliquoted in eppendorf tubes and incubated in a heated bath at 37° C. A quantity of 200 μg of Compound B (SEQ ID NO:810) or Compound A (SEQ ID NO:809) in water (10 μg/μL in water) was added subsequently to each fraction and incubated for T=0, 5, 10, 20, 30, 60, 120, 240, 360 and 420 minutes. At the end of the incubation, the fractions were quenched by the addition of 0.20 ml 1M trifluoroacetic acid (TFA) and the tubes agitated gently and kept on ice for 10 minutes. The tubes were then diluted further with 200 μL of a 0.05% solution of TFA.
The samples were then centrifuged at 5000 rpm for 45 min at 4° C. The supernatants were extracted on solid phase.
Sep-pak C 18 cartridges (VWR #BJ9000, 100 mg, 1 ml, octadecyl column C18)) were preconditioned with 80% acetonitrile/0.1% TFA (5×1 ml) followed by TFA 0.05% (5×1 ml). The quenched (acidified) plasma samples were aspirated and applied to the column, and washed with 2×1 ml of TFA 0.05% (eluate discarded) followed by extraction with 5×1 ml of (80% acetonitrile/0.1% TFA). The samples were then frozen and lyophilized.
Dry residue was resuspended in 200 μL of (20% acetonitrile/0.1% TFA) and spun down in a centrifuge to clarify the sample by centrifugation at 5000 rpm for 15 minutes at 22° C. before loading 50 μL on HPLC.
HPLC analysis was performed on the Gilson using the following column, mobile phase, and detection systems.

Mature Granulocyte = test: 3H-thymidine killing of mature granulocyte bone marrow cells; type: cell-based, human; details: Table 5, no drug 48 +/− 3
Primitive CFU-GM = test: 3H-thymidine suicide assay of primitive CFU-GM in adherent layer of human LTC (Table 7); type: cell-based; details: 1 μg/ml, None: 44 +/− 3
Excerpt: Primitive high proliferative potential colony forming cells (HHP-CFC) in an adherent layer in culture are usually in a quiescent state. This long term culture (LTC) is established seven to ten days after initiation of the LTC. The cells may be stimulated to proliferate by the addition of fresh medium. Both BFU-E (burst forming unit—erythroid precursor) cells and CFU-GM (colony forming unit—granulocyte-monocyte common precursor) cells of LTC may be maintained in a quiescent state by the mesenchymally derived stromal cells in an adherent layer, but can be reversibly stimulated into the cycle by the addition of fresh media. The ability of CXCR4 agonists such as SDF-1 and SDF-1 polypeptides to overcome this activation may be determined by adding it to the LTC during the medium change. Rapidly dividing cells will accumulate proportionally more of a cytotoxic agent, such as radioactive thymidine, and as a result are preferentially killed.
The results depicted in Table 7 illustrate the ability of SDF-1, and SDF-1(1-14)-(G)4-SDF-1(55-67)-Lys20/Glu24-cyclic amide (SEQ ID NO:809) and SDF-1(1-14)-(G)4-SDF-1(55-67) acid (SEQ ID NO:806) to repress the proliferation of clonogenic erythroid and granulopoitic progenitors (which differentiate into erythrocytes, platelets, monocytes/macrophages and neutrophils) in an in vitro LTC-IC (long-term culture-initiating cells) assay. […]

Question: What does the source list for “H2N-Lys-Pro-Val-Ser-Leu-Ser-Tyr-Arg-Cys-Pro-Cys-Arg-Phe-Phe-[Gly-Gly-Gly-Gly]-Leu-Lys-Trp-Ile-Gln-Glu-Tyr-Leu-Glu-Lys-Ala-Leu-Asn-NH2 (H-KPVSLSYRCPCRFFGGGGLKWIQEYLEKALN-NH2; lactam 20-24; cysteine pairing not given here) [Compound A]”?
Answer: Percentage of compound remaining in plasma ([1]; 0 min): 100%; Percentage of compound remaining in plasma ([1]; 5 min): 32%; Percentage of compound remaining in plasma ([1]; 10 min): 26%; Percentage of compound remaining in plasma ([1]; 20 min): 21%; Percentage of compound remaining in plasma ([1]; 30 min): 8%; Percentage of compound remaining in plasma ([1]; 60 min): 9%; % CELL KILLED (Mature Granulocyte): 39 +/− 5%; % CELL KILLED after 3H-Thymidine (Primitive CFU-GM): 0 +/− 3%
